Source: the supplement of paper PMC11417369
The other results are listed elsewhere or left out.

The sequences below were run on PfSIP2 AP2 domain 1 (GST-tagged) (assay: gcPBM binding intensity (ln(normalized median fluorescence intensity)); higher = stronger DNA binding).
In short: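 After 1 h on an Agilent 4 × 180k array of primer-extended double-stranded 36-bp intergenic genomic probes and negative controls, bound GST-tagged P. falciparum DNA-binding domains were detected with Alexa488 anti-GST antibody and scanned at 488 nm. The domains had been expressed in E. coli, and binding took place in 1× PBS with 1% milk, 0.2 mg/ml BSA, 0.5% salmon testes DNA and 0.03% Triton X-100. Binding intensity is the highest Masliner-normalised natural-log median intensity across replicate spots of either probe orientation.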

Compared with “AAAAAAAAAAAAAAATATAAATATATATATATATAT [GTGCAC_negctrl_site28]”, “AAACGAACATATAAATGTACATATATATACATATAT [XGTACX_site8086]” is lower in “gcPBM binding intensity (ln)” value: 9.5 for the first, 7.26 for the second.

First: AATTAAATATTATAAACACACATATATATTATTTTT [CACACA_site865]
Second: TATGTATTAAATTTTACACACATGATTCTCTATATA [CACACA_site2298]
The “gcPBM binding intensity (ln)” value of the first is lower: 6.85 for the first, 6.91 for the second.

Compared with ATTGTAAATATAGAAGTGCAAAAGGGTATGAAATGA, “TACAAAAAAAATGTATTTAGGACATATATATGTTTA [XGTACX_negctrl_site455]” is lower in “gcPBM binding intensity (ln)” value: 8.24 for the first, 6.73 for the second.

Going from “AAAGTATATAGGATACGTACATACATAAATAAATAA [XGTACX_site8216]” to “GTACAAAATTGACAAGTGCAAAAATTAAAAGCAAGA [GTGCAC_site9838]”, the “gcPBM binding intensity (ln)” value rises from 7.01 to 8.67.

Compared with “ATATATATATAAATATGTACATATATTTATTTCTTT [XGTACX_site3784]”, “TATAAAAATAAGCACACACACAAATATAGATTTATT [CACACA_site6558]” is lower in “gcPBM binding intensity (ln)” value: 8.8 for the first, 6.98 for the second.

Going from “GTGTGAGCACATTCGGGAGAGTTTTTTTTTTTTTTT [CACACA_negctrl_site1776]” to “TATATTCAAAATGGTACACACAATATTTAATTGTGC [CACACA_site2631]”, the “gcPBM binding intensity (ln)” value falls from 7.31 to 6.86.

Compared with “TGACATATAAAATATTCACACACAAGTTATAGTTCT [CACACA_site9209]”, “ACATTTTCTTATAAATGTACATATATATTATTATAT [XGTACX_site4404]” is higher in “gcPBM binding intensity (ln)” value: 6.71 for the first, 7.04 for the second.

First: TTAATAGAAATACGTGCACACTAAAGGGAAAACAAT [CACACA_site4923]
Second: ACAAGTATTAATTACACACTCAAAAAGAAAAAACAA [CACACA_site2281]
The “gcPBM binding intensity (ln)” value of the first is higher: 9.89 for the first, 6.92 for the second.

Compared with “ATATATTCTATATATACATGCATATATATTATATGT [TGCATGCA_site185]”, “TGAATAAATATGCAGCGTACATAATCCTCTTAAAAT [XGTACX_site8462]” is lower in “gcPBM binding intensity (ln)” value: 7.04 for the first, 6.87 for the second.

Compared with “GTTAAATGAAAATATGTACACACTTGAAAATTTTTA [CACACA_site2924]”, “ATGCAACTATATATATATATTATATGTATGAATAAT [XGTACX_negctrl_site434]” is higher in “gcPBM binding intensity (ln)” value: 7.09 for the first, 7.16 for the second.

Going from “TATATATACACACACACATGCATGCCGATATATATA [TGCATGCA_site29]” to “AAAAGATATTTGAATATACACACGATTTAAATTTAA [CACACA_site3865]”, the “gcPBM binding intensity (ln)” value falls from 7.06 to 6.73.

Going from “AAAGATTTAATCTATACATGCAAATATATAGAAAAG [TGCATGCA_site373]” to “AATAAAAATAGGAAATGTACACATATATATATATAT [XGTACX_site1853]”, the “gcPBM binding intensity (ln)” value rises from 6.93 to 8.81.

Going from “AGATGCCAAGTATAAAGTACATATCAAAATGTATAT [XGTACX_site456]” to “GAACAAAATTTTATATGTACATAATATTTATATATA [XGTACX_site3667]”, the “gcPBM binding intensity (ln)” value rises from 6.95 to 7.05.

Compared with “TTATTTTATTTTTATACACACATGTTTTAATGTTCA [CACACA_site249]”, “AAAACTTTTAAAATTTTGTATTCATTCCTTCAACAA [GTGCAC_negctrl_site697]” is lower in “gcPBM binding intensity (ln)” value: 7.01 for the first, 6.77 for the second.

Compared with “TTTATAATTCCATAATGTACAAATAAAATAAAAAAT [XGTACX_site663]”, “AGGAGGATAGTTCACAGTACCCAGTAACTCTACGAG [XGTACX_site2008]” is lower in “gcPBM binding intensity (ln)” value: 7.2 for the first, 6.55 for the second.

Compared with “AAAATTAATGTTGGTTGTACAAAAATTAAATATGGT [XGTACX_site66]”, “GTACAAAGGACTATACATAGAAAAATATATATATAT [XGTACX_negctrl_site164]” is higher in “gcPBM binding intensity (ln)” value: 7.55 for the first, 9.08 for the second.

First: GAAAAAAAAAAAAAAAGTACATTCTCTATTTCATGT [XGTACX_site3209]
Second: ATAAATTTAAATAGGAGTACACAGCTTTATATTTTG [XGTACX_site4176]
The “gcPBM binding intensity (ln)” value of the first is lower: 6.83 for the first, 7.45 for the second.

Going from “TAATTACCATATGGTACACACATATTTATAGGTATA [CACACA_site7603]” to “CGCGCACCCAGACACACACACACACCCATATATATA [CACACA_site2203]”, the “gcPBM binding intensity (ln)” value rises from 7.04 to 10.8.

Compared with “ACGTATAATATGTACACACACATATATACCAAAAAA [CACACA_site4661]”, “GATAAAATAATATATAGTACTTTTTTAAAATAAATA [XGTACX_site522]” is lower in “gcPBM binding intensity (ln)” value: 7.53 for the first, 7.1 for the second.

First: TATAAAACACACACACATATATATATATATTTATAT [TGCATGCA_negctrl_site48]
Second: AATTTTAAATTTAATTTACACACTTTTCATAGCATT [CACACA_site9264]
The “gcPBM binding intensity (ln)” value of the first is higher: 7.27 for the first, 6.92 for the second.

Compared with “ATTTACAAAAATTTTGTATAAAGGGATTTTAAAATG [TGCATGCA_negctrl_site350]”, “TTTTTTTTTTCTCCTGCATGCAGCATTTATATATTA [TGCATGCA_site390]” is lower in “gcPBM binding intensity (ln)” value: 7.18 for the first, 6.93 for the second.

Compared with “TATATATATATATATACATGCATTTTTGTTTGCTTA [TGCATGCA_site256]”, “GACAACGTTTCAATGTGTACATATTTATAATATATA [XGTACX_site2427]” is lower in “gcPBM binding intensity (ln)” value: 9.38 for the first, 7.06 for the second.

Compared with “ATTGAAAAACCGTTTAGTACATATCATCACGTTTGT [XGTACX_site1295]”, “TATATATATATATGTACACACATCAATCATATTAAC [CACACA_site1946]” is higher in “gcPBM binding intensity (ln)” value: 6.88 for the first, 9.47 for the second.

Compared with “TTTTTTTTTTTTTTTACACACTGCATACAAGAAAAA [CACACA_site5642]”, “AAAATACGAATATAAACATGCACCATATAGAACAAA [TGCATGCA_site925]” is higher in “gcPBM binding intensity (ln)” value: 7.04 for the first, 10.7 for the second.

Going from “TAAAATAAAATAAGTAGTACATATATAATTATATAT [XGTACX_site6733]” to “TACAAATATAGATGCACACACATATACATACCTATA [CACACA_site7094]”, the “gcPBM binding intensity (ln)” value falls from 7.36 to 7.11.

First: TTTTTACAAAAAAAAAAAAAAAAAATAAAAATAAAT [CACACA_negctrl_site1738]
Second: GACGTGGAAAAAAAAACACACACAAAAAAAAAAAAA [CACACA_site9324]
The “gcPBM binding intensity (ln)” value of the first is lower: 6.6 for the first, 7.11 for the second.

First: TGAACATCATTTTTATGTACACACACATATACGTTG [XGTACX_site3864]
Second: AAAACAAACAAAAAAAAAAAAAAAAATATCAATCTA [TGCATGCA_negctrl_site203]
The “gcPBM binding intensity (ln)” value of the first is higher: 7.06 for the first, 6.52 for the second.

First: ATATATCATGCCAAGGGTACAAATGTGTAGTTGAAA [XGTACX_site2820]
Second: TTTTTTAAATATTATTTTTATGAGTAAATATATTAT [GTGCAC_negctrl_site277]
The “gcPBM binding intensity (ln)” value of the first is higher: 7.16 for the first, 6.71 for the second.

Going from “ATATTTATACTATACACACCCAATTTAAAAAAAAAT [CACACA_site1163]” to “GAAAAATTAAAATGTGGTACAATAAAATTTTATTCA [XGTACX_site5030]”, the “gcPBM binding intensity (ln)” value falls from 7.26 to 6.96.

First: AATTTATTAATACAAAGTACTTTCTAATATGAATTT [XGTACX_site8013]
Second: TTATTGCGCACAATTTGTACATATATATATATAGAA [XGTACX_site7573]
The “gcPBM binding intensity (ln)” value of the first is lower: 6.88 for the first, 7.35 for the second.

First: TATTGAAAAAGTGGAAAAAAGTACATCATACGGGAA [CACACA_negctrl_site1091]
Second: GTAAGAAACAGACACACACACATATAAATATAAATA [CACACA_site6515]
The “gcPBM binding intensity (ln)” value of the first is lower: 7.17 for the first, 7.29 for the second.

Compared with “TAAATCACAAAATTATGTACTAAGAAGGAGCAACAT [XGTACX_site6742]”, “TATACCTTAATATACACACATACATATATATATATA [CACACA_site1339]” is higher in “gcPBM binding intensity (ln)” value: 7.34 for the first, 9.12 for the second.

First: TATATACATTTTTATGTGCACATTTTATTTTTAAAT
Second: TAACAAAGTAAAAGAACATGCAAACACGCACACAGA [TGCATGCA_site374]
The “gcPBM binding intensity (ln)” value of the first is higher: 8.77 for the first, 7.92 for the second.

First: GGGGAAAAAGCAGGTTGTACAGTGATGTCCATATAA [XGTACX_site7606]
Second: AGTGTATTAAATTTTGAACACACAAAATAAAACATA [CACACA_site8483]
The “gcPBM binding intensity (ln)” value of the first is higher: 7.19 for the first, 7 for the second.

Compared with “TTTAGACTTTTCTATAGTACATATTATATATATATA [XGTACX_site6532]”, “TTTTAATTTAAAAATTAATTTATATATATATATATA [TGCATGCA_negctrl_site447]” is higher in “gcPBM binding intensity (ln)” value: 8.42 for the first, 9.29 for the second.

First: AACATTATCAAATAAACCATAAATCAATTCAATATG [CACACA_negctrl_site696]
Second: AAACGTTTATTTTATTGTACATATGAAAAATGCTTC [XGTACX_site6896]
The “gcPBM binding intensity (ln)” value of the first is higher: 6.99 for the first, 6.95 for the second.

First: AAAAAAAAAAAAAATTGTACGGATTCTTTTTTTTTT [XGTACX_site2898]
Second: ATATTTTTTTTTTTCACACACATTTAGATTGTATTA [CACACA_site3137]
The “gcPBM binding intensity (ln)” value of the first is lower: 7 for the first, 7.22 for the second.

Compared with “TTGTATAAAAAACTAAAAAATATAAAATAATAAGTG [CACACA_negctrl_site1704]”, “CGTAATAATTAATGTTGTACCCACCAAAAAAATTAA [XGTACX_site8592]” is lower in “gcPBM binding intensity (ln)” value: 7.23 for the first, 7.17 for the second.

First: ATTACATTTTTGTTTTGTACATATATTTTATAAACA [XGTACX_site494]
Second: TTGTTTTGTAATAAAAAAAAAATAATATAATATAAT [XGTACX_negctrl_site300]
The “gcPBM binding intensity (ln)” value of the first is higher: 7.35 for the first, 6.99 for the second.

Compared with “TATATTTATATATATACACACATAATAAAAAATATA [CACACA_site844]”, “TTTATAGTTTTAAACAAAGTAATACAAATGTATATA [CACACA_negctrl_site1716]” is lower in “gcPBM binding intensity (ln)” value: 6.97 for the first, 6.77 for the second.

Going from “GAAATATTGAAACACACACACAAACATATATATATA [CACACA_site1911]” to “TATAAAAAAAATAAAATAAAATAAAATAGAAAAATA [TGCATGCA_negctrl_site109]”, the “gcPBM binding intensity (ln)” value falls from 9.06 to 6.77.

Compared with “AAATTTGGTGAAGGATGTACTTTACCTAATACTTGT [XGTACX_site4825]”, “AAAACAAAAAAATTTTGTACGAAACAATACTGTAAG [XGTACX_site7992]” is higher in “gcPBM binding intensity (ln)” value: 6.85 for the first, 7 for the second.

Going from “TATATATATTGTTATTGTACACAAATATAGGAAATA [XGTACX_site7110]” to “ATAAATTAAACAAACACACACGTTCTTTTATTTACT [CACACA_site4556]”, the “gcPBM binding intensity (ln)” value falls from 7.27 to 7.05.

With “AAAAAAATATATTCCTAATTTATGATTAAAAGGAAT [CACACA_negctrl_site751]” the “gcPBM binding intensity (ln)” value was 6.77.
